Measurements from PubChem BioAssay (NCATS).
The shares of active, inactive and inconclusive entries below differ from those in the screen. No potency is given beside an inconclusive call; the fits are too rough. Active and inactive are the calls of the source. Calls come from the whole dose curve; as a rule, active = well fitted cell-killing curve with a large enough effect; inconclusive = small, poorly fitted or top-dose-only effect, or effect the other way; inactive = no such curve, though single readings can be large or run the other way.

Assay: Viability qHTS for spleen associated tyrosine kinase inhibitor (SYKi) drug resistant MV4-11 cells (AID 1963824); note: nearly all actives have a fitted effect of over 35% in size
Settings: SYKi-resistant MV4-11 viability, CellTiter-Glo, 72 h; series mostly up to 45 µM
Text: Department of Medicine, Hematology/Oncology
University Hospital Frankfurt, Germany.
Trials have shown promising clinical activity of the selective SYK inhibitor entospletinib in patients with high expressing HOXA9/MEIS1 acute leukemias. As the development of resistance mechanisms is a common problem in the use of targeted drugs, we performed a chemical library screen to identify drug sensitivities in SYK inhibitor resistant AML cells. […] Glucocorticoids are potent immunosuppressants which work in part by inhibiting the transcription of cytokine genes.
Described herein is a viability screen to look for activity in the SYK inhibitor drug resistant cell line against four NCATS compound libraries (MIPE 5.0, NPC, NPACT, and Kinase) totaling 11372 compounds. Active hits were reacquired for confirmation and further secondary assay testing.
SEQUENCE No. (e.g., 1, 2, 3, etc.); […] (e.g., Cells, Incubation, Reagent, etc.); VALUE; DESCRIPTION.
1; Media; 2uL; white, solid-bottom Corning assay plate.
2; Compounds; 23nL; Echo acoustic dispenser.
3; Cell; 5uL; 500 cells per well.
4: Incubation; 72hr; 37 C, 5% CO2, 95% humidity.
5; Reagent; 3uL; CellTiter-Glo reagent (Promega).
6; Incubation; 10min; room temperature.
7; Detection; Luminescence; ViewLux plate reader (PerkinElmer).
NOTES (numbers refer to Sequence numbers above
1. Quantitative high-throughput screening (qHTS) of small molecule compounds was conducted on drug resistant SYKi MV4-11 cell line.
2. Twenty-three nanoliter of small molecule compounds were added to each assay plates using the Echo acoustic dispenser (Beckman Coulter).
3. Cells were seeded into the assay plates at a final density of 500 cells in 5uL of media per well using the Multidrop Combi dispenser.
4. Plates were covered with stainless steel gasketed lids and incubated for 72 hours at standard cell culture conditions.
5. Viability was assessed by adding 3uL of CellTiter-Glo detection reagent (Promega).
6. Plates were covered with gasket lids and incubated for 10 minutes at room temperature.
7. Luminescence was measured on a ViewLux plate reader (PerkinElmer).
Potency is the fitted concentration of half-maximal effect; tags give direction and shape of the fitted curve.

SMILES | Potency
CCC(C)CNCC(=O)N1CCC2SC=CC2C1COc1cccc(C)c1 (stereo not given) | active: 10.3 µM
O=C(O)Cc1ccc(CCNS(=O)(=O)c2ccc(Cl)cc2)cc1 | inconclusive [cytotoxic, partial curve, poor fit]
CCCCC(CC)COC(=O)/C=C/c1ccc(OC)cc1 (stereo not given) | inactive
COc1cc(NS(=O)(=O)c2ccc(N)cc2)nc(C)n1 | inconclusive [cytotoxic, partial curve, poor fit]
C[C@@H]1O[C@@H](O[C@H]2[C@@H]3C=CO[C@@H](O[C@@H]4O[C@H](CO)[C@@H](O)[C@H](O)[C@H]4O)[C@@H]3[C@@]3(CO)O[C@@H]23)[C@H](O)[C@H](O)[C@H]1OC(=O)/C=C/c1ccc(O)cc1 | inconclusive [rising, full curve]
C[C@@H]1O[C@@H](OC[C@H]2O[C@@H](OCCc3ccccc3)[C@H](O)[C@@H](O)[C@@H]2O)[C@H](O)[C@H](O)[C@H]1O | inactive
C/C=C/C=C/C=C/C(=O)N(C)C(C(=O)NC(C)C(=O)N1CCCC1C(N)=O)C(C)C (stereo not given) | inactive
COC1C(OC(=O)/C=C/C=C/C=C/C=C/C(=O)O)CCC2(CO2)C1C1(C)OC1CC=C(C)C (stereo not given) | inconclusive [cytotoxic, partial curve, poor fit]
N=C(N)N | inconclusive [cytotoxic, single point]
CN(C)CCCN1c2ccccc2Sc2ccc(C(F)(F)F)cc21 | inconclusive [cytotoxic, partial curve, poor fit]
C[C@@H]1CN(Cc2ncccn2)C[C@H]1c1nc2c(cnn2C2CCOCC2)c(=O)[nH]1 | inactive
C=C(C(=O)OC)C1C(O)CC2(C)C(O)CCC(=O)C2C1O (stereo not given) | inactive
CN(C/C=C/C#CC(C)(C)C)Cc1cccc2ccccc12 | inconclusive [cytotoxic, single point]
CCOC(=O)N1CCC(NCCNC(=O)c2ccccc2C)CC1 | inactive
Cc1ccc(NS(=O)(=O)c2cc3c(cc2Cl)CCC(=O)N3)cc1Cl | active: 9.2 µM
O=C1c2cccc(O)c2C(=O)c2c(O)cc(CO)cc21 | inconclusive [cytotoxic, single point]
COc1cc(O)cc(/C=C/c2ccc(O[C@@H]3O[C@H](CO)[C@@H](O)[C@H](O)[C@H]3O)cc2)c1 | inconclusive [cytotoxic, partial curve]
CC(C(=O)O)c1cccc(C(=O)c2ccccc2)c1 (stereo not given) | inconclusive [cytotoxic, partial curve, poor fit] and inactive
CC(C)CC1NC(=O)C(C)NC(=O)C(CC(C)C)OC(=O)CCCNC1=O (stereo not given) | inactive
CCNc1nc(Nc2cc(F)c(C(=O)N3CCOCC3)cc2OC)ncc1C(F)(F)F | inconclusive [cytotoxic, partial curve]

SMILES | Potency
COc1cc2nc(N3CCN(C(=O)c4ccco4)C4CCCCC43)nc(N)c2cc1OC (stereo not given) | inconclusive [cytotoxic, full curve]
COC1CC(=O)CCC(C)OC(=O)CC1O (stereo not given) | inconclusive [cytotoxic, full curve]
O=C(NCc1ccc(S(=O)(=O)c2cc(F)cc(F)c2)cc1)c1ccc2nccn2c1 | inconclusive [cytotoxic, full curve]
COC(=O)N[C@H](C(=O)N[C@@H](Cc1ccccc1)[C@@H](O)CN(Cc1ccc(-c2ccccn2)cc1)NC(=O)[C@@H](NC(=O)OC)C(C)(C)C)C(C)(C)C | inactive
CC[C@@H]([C@H](C)O)n1ncn(-c2ccc(N3CCN(c4ccc(OC[C@@H]5CO[C@@](Cn6cncn6)(c6ccc(F)cc6F)C5)cc4)CC3)cc2)c1=O | active: 6.68 µM
COc1cccc(-n2nc(C(=O)O)cc2-c2ccc(C3CCCCC3)c(Cl)c2)c1 | inconclusive [cytotoxic, single point]
C/C1=C\[C@H]2OC(=O)[C@@H](C)[C@@H]2CC/C(C(=O)O)=C/CC1 | inactive
CC1=CC(=O)CC(C)(C)C1CCC(C)O[C@@H]1O[C@H](CO[C@@H]2OC[C@@H](O)[C@H](O)[C@H]2O)[C@@H](O)[C@H](O)[C@H]1O (stereo not given in full) | inactive
O=S(=O)(NC1CCC(c2cc(F)ccc2F)(S(=O)(=O)c2ccc(Cl)cc2)CC1)C(F)(F)F (stereo not given) | inconclusive [cytotoxic, single point]
CCCCc1ccc2nc(NC(=O)OC)[nH]c2c1 | inconclusive [cytotoxic, full curve, poor fit]
Cc1cnc(C(=O)O)c[n+]1[O-] | inactive
CC(=O)O[C@@H]1C[C@@]23C[C@@]24CC[C@H](O[C@@H]2OC[C@H](O)[C@H](O)[C@H]2O)C(C)(C)[C@@H]4CC[C@H]3[C@]2(C)[C@@H](O)C34O[C@H](C[C@@H](C)[C@@H]3[C@@]12C)[C@@H](C(C)(C)O)O4 | inconclusive [cytotoxic, single point]
CC(O)/C=C/C1OC(=O)CC1Nc1ccc(C(=O)O)cc1 (stereo not given) | inconclusive [cytotoxic, partial curve, poor fit]
Cc1ccsc1/C=C/C1=NCCCN1C | inactive
CC(C)=CCC/C(C)=C/CO[C@@H]1O[C@H](CO)[C@@H](OC(=O)/C=C/c2ccc(O)cc2)[C@H](O[C@@H]2O[C@@H](C)[C@H](O)[C@@H](O)[C@H]2O)[C@H]1O | inconclusive [cytotoxic, partial curve]
Cc1ccc(N2CCN(CCC3NC(=O)c4ccccc43)CC2)cc1C (stereo not given) | inconclusive [cytotoxic, partial curve]
OC[C@H]1O[C@@H]2O[C@H]3[C@H](O)[C@@H](O)[C@@H](O[C@H]4[C@H](O)[C@@H](O)[C@@H](O[C@H]5[C@H](O)[C@@H](O)[C@@H](O[C@H]6[C@H](O)[C@@H](O)[C@@H](O[C@H]7[C@H](O)[C@@H](O)[C@@H](O[C@H]8[C@H](O)[C@@H](O)[C@@H](O[C@H]1[C@H](O)[C@H]2O)O[C@@H]8CO)O[C@@H]7CO)O[C@@H]6CO)O[C@@H]5CO)O[C@@H]4CO)O[C@@H]3CO | inconclusive [cytotoxic, full curve, poor fit]
CN1CCN(C(=O)c2cc3cc(Cl)ccc3[nH]2)CC1 | active: 8.2 µM
C/C=C(/C)C(=O)O[C@H]1C=C(C)C[C@H](OC(=O)c2ccc(O)cc2)C2[C@](O)(C(C)C)CC[C@@]21C (stereo not given in full) | inconclusive [cytotoxic, partial curve]
CCOC(=O)Oc1ccc(CCNC(=O)[C@H](CCSC)NC(C)=O)cc1OC(=O)OCC | inconclusive [cytotoxic, single point]
